Experimental data taken from publication PMC7294946.
These are yes or no findings as the source states them, for the method shown. For some of these results: Binding seen in cells or lysates may run through a third protein. Some binding calls cover weakened binding; strength is not graded here. Values belong to the substance of their own block, whether it stands above or below them.

Chains of the proteins cited; added tags and fusions are not shown. Lines headed by an entry give the natural chain unless they say otherwise; changes in a name come on top.
UniProt Q01196: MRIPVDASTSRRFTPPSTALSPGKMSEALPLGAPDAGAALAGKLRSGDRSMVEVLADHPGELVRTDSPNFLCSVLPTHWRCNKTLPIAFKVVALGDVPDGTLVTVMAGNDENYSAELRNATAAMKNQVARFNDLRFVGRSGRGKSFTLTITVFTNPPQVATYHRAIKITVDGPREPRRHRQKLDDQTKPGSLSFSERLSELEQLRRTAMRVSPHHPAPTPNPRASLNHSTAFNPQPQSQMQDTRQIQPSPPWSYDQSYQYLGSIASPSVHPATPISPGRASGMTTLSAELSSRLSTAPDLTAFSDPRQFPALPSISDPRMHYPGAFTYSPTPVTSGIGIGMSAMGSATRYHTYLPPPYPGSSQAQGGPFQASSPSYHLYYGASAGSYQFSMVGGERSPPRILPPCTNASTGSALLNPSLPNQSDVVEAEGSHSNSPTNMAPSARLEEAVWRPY
UniProt O96013: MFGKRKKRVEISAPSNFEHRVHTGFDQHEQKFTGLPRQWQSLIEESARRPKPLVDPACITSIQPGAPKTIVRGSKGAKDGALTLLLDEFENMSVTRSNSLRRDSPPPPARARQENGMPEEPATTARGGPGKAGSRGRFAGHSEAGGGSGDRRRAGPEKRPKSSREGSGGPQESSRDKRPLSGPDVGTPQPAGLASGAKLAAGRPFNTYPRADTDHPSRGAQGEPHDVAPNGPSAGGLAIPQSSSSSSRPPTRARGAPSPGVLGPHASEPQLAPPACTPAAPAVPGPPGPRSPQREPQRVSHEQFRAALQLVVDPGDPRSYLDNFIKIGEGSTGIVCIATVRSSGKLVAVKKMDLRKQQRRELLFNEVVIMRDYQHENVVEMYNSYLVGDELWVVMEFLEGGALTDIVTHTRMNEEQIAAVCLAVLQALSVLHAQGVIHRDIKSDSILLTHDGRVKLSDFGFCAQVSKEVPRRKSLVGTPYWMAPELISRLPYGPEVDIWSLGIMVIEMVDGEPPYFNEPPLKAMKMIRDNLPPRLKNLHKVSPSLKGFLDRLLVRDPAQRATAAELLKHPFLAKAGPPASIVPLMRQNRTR
UniProt Q13547: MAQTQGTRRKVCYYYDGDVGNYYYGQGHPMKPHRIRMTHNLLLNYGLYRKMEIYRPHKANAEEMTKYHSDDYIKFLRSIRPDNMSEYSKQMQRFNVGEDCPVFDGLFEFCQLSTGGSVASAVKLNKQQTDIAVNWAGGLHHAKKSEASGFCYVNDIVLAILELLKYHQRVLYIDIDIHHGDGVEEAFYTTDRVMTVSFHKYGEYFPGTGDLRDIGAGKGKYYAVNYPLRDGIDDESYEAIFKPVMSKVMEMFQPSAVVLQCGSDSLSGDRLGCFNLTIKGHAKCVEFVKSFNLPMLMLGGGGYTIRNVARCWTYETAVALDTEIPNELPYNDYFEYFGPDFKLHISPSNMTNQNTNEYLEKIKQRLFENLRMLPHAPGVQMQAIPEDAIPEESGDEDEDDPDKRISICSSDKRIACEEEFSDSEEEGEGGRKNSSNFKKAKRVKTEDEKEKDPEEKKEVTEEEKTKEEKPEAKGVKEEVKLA
UniProt Q99873: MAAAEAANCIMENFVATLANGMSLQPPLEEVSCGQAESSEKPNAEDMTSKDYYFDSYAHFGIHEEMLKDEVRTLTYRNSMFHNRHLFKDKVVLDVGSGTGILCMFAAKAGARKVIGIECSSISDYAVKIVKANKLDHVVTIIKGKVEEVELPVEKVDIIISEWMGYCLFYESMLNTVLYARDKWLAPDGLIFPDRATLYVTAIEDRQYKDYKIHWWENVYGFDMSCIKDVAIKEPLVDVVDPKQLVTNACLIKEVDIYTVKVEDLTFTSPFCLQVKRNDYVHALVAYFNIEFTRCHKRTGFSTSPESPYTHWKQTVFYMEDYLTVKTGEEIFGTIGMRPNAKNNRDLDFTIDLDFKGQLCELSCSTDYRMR

What was measured:
[1] = biological target: Endogenous RUNX1 (human (endogenous in MCF-7 and ZR-75-30)) (UniProt Q01196); test: co-IP; endogenous proteins; lysates (2 mg total protein) of MCF-7 and ZR-75-30 cells immunoprecipitated with RUNX1 antibodies or IgG, Protein A agarose, overnight 4°C; western blot; also in cells transfected with Flag-PAK4 WT, NE or KM or treated with PF-3758309
Flag-RUNX1 T207A = Flag-RUNX1 T207A (UniProt Q01196); test: co-IP; MCF-7 and ZR-75-30 cells transfected with Flag-RUNX1 WT, T207A or T207D; immunoprecipitated with Flag antibodies; western blot
Flag-RUNX1 T207D = Flag-RUNX1 T207D (UniProt Q01196); test: as above
Flag-RUNX1 WT = Flag-RUNX1 WT (UniProt Q01196); test: as above
GST-RUNX1 = GST-RUNX1 (UniProt Q01196); test: pull-down; bacterially expressed GST fusion (glutathione-conjugated Sepharose beads) incubated with the recombinant human partner in vitro; western blot; both purified
[2] = biological target: Endogenous RUNX1 (human (endogenous in MCF-7 and ZR-75-30)) (UniProt Q01196); test: co-IP; nuclear and cytoplasmic fractions of MCF-7 cells cultured with E2 (physiological conditions); western blot
[3] = biological target: Endogenous RUNX1 (human (endogenous in MCF-7 and ZR-75-30)) (UniProt Q01196); test: co-IP; nuclear and cytoplasmic fractions of MCF-7 cells cultured without E2; western blot
GST-PAK4 = GST-PAK4 (UniProt O96013); test: pull-down; bacterially expressed GST fusion (glutathione-conjugated Sepharose beads) incubated with the recombinant human partner in vitro; western blot; both purified

binding (GST-RUNX1): binds
Substance: Recombinant human PAK4 (from UniProt O96013 1-591) (enzyme)

binding [1]: binds
Substance: Endogenous HDAC1 (from UniProt Q13547 1-482) (enzyme)

The remaining lines, values behind:

Substance: Endogenous PRMT1 (from UniProt Q99873 1-371) (enzyme)
binding [1]: binds
binding (Flag-RUNX1 T207A): binds
binding (Flag-RUNX1 T207D): binds
binding (Flag-RUNX1 WT): binds

Substance: Endogenous PAK4 (from UniProt O96013 1-591) (enzyme)
binding [1]: binds
binding [2]: binds
binding [3]: no binding (condition: cells cultured without E2)

Substance: Recombinant human RUNX1 (from UniProt Q01196 1-453)
binding (GST-PAK4): binds
